# Measurements: PubChem BioAssay AID624173 (National Center for Advancing Translational Sciences (NCATS), 2012)
# Screen size: about 410,000 compounds; about 490 (0.12%) were called active. The shares of active, inactive and inconclusive entries below differ from those in the screen. Calls follow the shape of the dose curve; as a rule, active = well fitted inhibition curve with a large enough effect; inconclusive = small, poorly fitted or top-dose-only effect; inactive = flat fitted curve, though single readings scatter. Where the call is inconclusive, the potency comes from a doubtful curve fit.
# Target: pyruvate kinase (Trypanosoma brucei) (UniProt Q57TT1)
# Assay: qHTS of Trypanosoma Brucei Inhibitors; also: nearly all actives have a fitted effect of over 50% in size
# Settings: TbPYK enzyme, Kinase-Glo Plus ATP luminescence, 45 min; series mostly up to 76.8 µM; activity, negative = inhibition: at the top concentration
# Procedure, shortened: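 T. brucei PYK with substrate was exposed to pin-transferred compounds across a concentration series, then started with 130 uM ADP (final). After 45 min at room temperature, Kinase-Glo Plus luminescence was read, normalized and curve-fitted.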
# % is scaled to controls: 0 for no effect and ±100 for the full control effect; potency is read from the fitted curve at half-maximal effect; tags tell the direction and shape of the fitted curve.
Structure (SMILES),"activity, negative = inhibition",Potency
c1ccc(-c2cc3nc(NCc4cccs4)nc(NCc4ccc5occc5c4)c3s2)cc1,inactive: -1.31%,
COc1ccc(OC)c(C2CC(=O)N3CN(c4ccc(C)c(Cl)c4)CSC3=C2C#N)c1 (configuration not stated),,"inconclusive: 3.55 µM [inhibitor, full curve, poor fit]"
COc1ccc(-n2ncc(C(=O)N3CCc4ccccc4C3)c2C2CCN(C(=O)OC(C)(C)C)CC2)cc1,inactive: -7.1% [at 15.4 µM],
CCOC(=O)C(N)CSC1CC(=O)N(c2ccc(OCC)cc2)C1=O (configuration not stated),inactive: 3.31%,
Oc1ccc(/C=N/N2CCN(c3ccccn3)CC2)cc1,inactive: -1.52%,
C=CCOc1ccc(CNn2cn[nH]c2=S)cc1OCC,,"inconclusive: 20 µM [inhibitor, partial curve, poor fit]"
Cc1ccc(O)c(N=Nc2ccccc2)n1,,"inconclusive: 15.8 µM [inhibitor, partial curve]"
O=C(Nc1ccc(-c2n[nH]c(=S)o2)cc1)c1ccccc1,,"inconclusive: 5.01 µM [inhibitor, partial curve]"
Cc1ccc(NS(=O)(=O)c2ccc(N3CCN(c4ccc(O)cc4)CC3)c([N+](=O)[O-])c2)c(C)c1,,"inconclusive: 11.2 µM [inhibitor, partial curve, poor fit]"
C[C@H]1CN(S(=O)C(C)(C)C)[C@H](CCO)/C1=C\c1ccccc1 (some centres not stated),inactive: -3.18%,
CCOC(=O)C1=C(Cc2ccc(OC)cc2)C(=O)c2ccccc2C1=O,,"inconclusive: 35.5 µM [inhibitor, single point]"
C=CCOn1c(=O)c(-c2ccc(OC)c(OC)c2)[n+]([O-])c2ccccc21,,"inconclusive: 50.1 µM [inhibitor, single point]"
Cn1nc(C(F)(F)F)c(-c2cccc(C(F)(F)F)c2)c1NC(=O)c1cccnc1,inactive: 3.15%,
Cc1nn(Cc2ccccc2)c(C)c1NS(=O)(=O)c1ccccc1,,"inconclusive: 31.6 µM [inhibitor, single point]"
Cc1cc(C2=NNC(=NC3CC3)SC2)c(C)n1-c1ccccc1F,,"inconclusive: 50.1 µM [inhibitor, single point]"
CCCC1(C(=O)OCC)NC(c2ccc(N(C)C)cc2)C2C(=O)N(c3ccc4c(c3)OCCO4)C(=O)C21 (configuration not stated),,"inconclusive: 25.1 µM [inhibitor, partial curve, poor fit]"
COc1ccc(OC)c(C(C)NC(=O)Cn2c(=O)cc(C)c3c(C)nn(-c4ccc(C)cc4)c32)c1 (configuration not stated),inactive: 0.549%,
COc1ccc(-n2c(-c3ccc(C(C)(C)C)cc3)n[nH]c2=S)c(OC)c1,,"inconclusive: 4.47 µM [inhibitor, partial curve, poor fit]"
Nc1ccccc1C(=O)NCc1ccccc1,,"inconclusive: 50.1 µM [inhibitor, single point]"
COc1ccc(CNC(=O)c2ccc(-c3ccccc3)cc2)cc1OC,inactive: -6.42%,
Cc1ccc2c(c1)C1C[N+](C)(CC(=O)c3ccc(Cl)cc3Cl)CCC1N2C(=O)c1ccc(F)cc1 (configuration not stated),,"inconclusive: 35.5 µM [inhibitor, single point]"

Structure (SMILES),"activity, negative = inhibition",Potency
CCOC(=O)CSc1nc2ccc(NC(=O)c3ccccc3F)cc2s1,,"inconclusive: 28.2 µM [inhibitor, partial curve, poor fit]"
CCCOc1ccc(/C=C2/C(=O)ON=C2C)cc1OCC,,"inconclusive: 28.2 µM [inhibitor, single point]"
CC1CN(S(=O)(=O)c2cccc(C(=O)N(Cc3nnc(-c4ccccc4Cl)o3)C3CC3)c2)CC(C)O1 (configuration not stated),inactive: 2.09%,
CC(C)(C)C1CCc2c(sc3nc(SCC(=O)O)nc(N)c23)C1 (configuration not stated),,"inconclusive: 28.2 µM [inhibitor, partial curve]"
Cc1ccsc1/C=N/n1c(C2CCCCC2)n[nH]c1=S,,"inconclusive: 3.55 µM [inhibitor, full curve]"
CC(OC(=O)c1ccncc1)C(=O)Nc1cc(S(=O)(=O)N2CCCCC2)ccc1Cl (configuration not stated),inactive: 2.91%,
NS(=O)(=O)c1ccc(NNC(=O)c2ccc(Br)o2)c([N+](=O)[O-])c1,,"inconclusive: 44.7 µM [inhibitor, partial curve, poor fit]"
O=c1c2sccc2[nH]c(=S)n1-c1ccccc1,,"inconclusive: 15.8 µM [inhibitor, partial curve]"
COc1ccc(NC(=O)c2sc3nc4c(cc3c2N)CN(Cc2ccccc2)CC4)c(OC)c1,inactive: -6.46%,
O=[N+]([O-])c1ccc(/C=N/n2c(COc3ccccc3)n[nH]c2=S)cc1,,"inconclusive: 2.24 µM [inhibitor, partial curve, poor fit]"
CCN(CC)CCn1c(NC(=O)c2ccc(C(F)(F)F)cc2)nc2ccccc21,inactive: -0.446%,
CC(=O)Nc1nc2cc3c(cc2s1)OCCO3,inactive: -20.6%,
O=C(Nc1cccc(S(=O)(=O)Nc2ccccc2F)c1)c1ccc2ccccc2n1,,"inconclusive: 20 µM [inhibitor, partial curve, poor fit]"
O=C(O)c1cc(O)c2c(c1)[C@H]([C@H]1c3cc(C(=O)O)cc(O)c3C(=O)c3c(O[C@@H]4O[C@H](CO)[C@@H](O)[C@H](O)[C@H]4O)cccc31)c1cccc(OC3O[C@H](CO)[C@@H](O)[C@H](O)[C@H]3O)c1C2=O (some centres not stated),,"inconclusive: 39.8 µM [inhibitor, partial curve, poor fit]"
COc1ccccc1Nc1nc(-c2ccccc2F)nc2ccccc12,inactive: -1.1%,
CC(=O)c1c(C)c[nH]c1C,,"inconclusive: 39.8 µM [inhibitor, single point]"
O=C(CSc1ccc2ccccc2c1)N1CCN(c2ccc(O)cc2)CC1,,"inconclusive: 44.7 µM [inhibitor, single point]"
CCCCOc1ccc(Cc2n[nH]c(=S)n2N)cc1,,"inconclusive: 17.8 µM [inhibitor, partial curve, poor fit]"
O=S(=O)(NCc1cn2ccccc2n1)c1cccs1,inactive: 9.21%,
O=C1N/C(=C/c2ccco2)C(=O)N1Cc1ccccc1F,,"inconclusive: 50.1 µM [inhibitor, single point]"
COc1ccccc1-c1nc(-c2ccccn2)no1,,"inconclusive: 25.1 µM [inhibitor, partial curve, poor fit]"
